In the supplement of paper PMC8728848:
Some of the results follow.

Assays:
Test in all cases: glycan array binding signal (z-score within array); higher = stronger binding
Settings in all cases: glycan notation: IUPAC condensed, linker removed
Glc(a1-6)Glc(a1-6)Glc = biological target: Glc(a1-6)Glc(a1-6)Glc
In short: (§1)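 The Consortium for Functional Glycomics database supplied 3228 glycan arrays, of which those lacking an available protein sequence were dropped. The binding signal, a within-array Z-score, was averaged across arrays of the same protein sequence and across linkers. Negative scores can be read as non-binding.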

[1] = biological target: Glc(a1-6)Glc(a1-6)Glc(a1-6)Glc
In short: as §1

Glc(b1-4)Glc = biological target: Glc(b1-4)Glc
In short: as §1

Glc(b1-6)Glc = biological target: Glc(b1-6)Glc
In short: as §1

GlcA(b1-3)Gal = biological target: GlcA(b1-3)Gal
In short: as §1

GlcA(b1-3)GlcNAc = biological target: GlcA(b1-3)GlcNAc
In short: as §1

GlcA(b1-6)Gal = biological target: GlcA(b1-6)Gal
In short: as §1

[2] = biological target: GlcA3S(b1-3)Gal(b1-4)GlcNAc(b1-2)Man
In short: as §1

[3] = biological target: GlcA3S(b1-3)Gal(b1-4)GlcNAc(b1-3)Gal(b1-4)Glc
In short: as §1

[4] = biological target: GlcNAc(a1-3)Gal(b1-4)GlcNAc
In short: as §1

[5] = biological target: GlcNAc(a1-4)Gal(b1-3)GlcNAc
In short: as §1

[6] = biological target: GlcNAc(a1-4)Gal(b1-4)GalNAc
In short: as §1

[7] = biological target: GlcNAc(a1-4)Gal(b1-4)GlcNAc
In short: as §1

[8] = biological target: GlcNAc(a1-4)Gal(b1-4)GlcNAc(b1-3)Gal(b1-4)Glc
In short: as §1

[9] = biological target: GlcNAc(a1-4)Gal(b1-4)GlcNAc(b1-3)Gal(b1-4)GlcNAc
In short: as §1

[10] = biological target: GlcNAc(a1-4)Gal(b1-4)GlcNAc(b1-3)Gal(b1-4)GlcNAc(b1-3)Gal(b1-4)GlcNAc
In short: as §1

[11] = biological target: GlcNAc(a1-4)Gal(b1-4)GlcNAc(b1-3)Gal(b1-4)[Fuc(a1-3)]GlcNAc(b1-3)Gal(b1-4)[Fuc(a1-3)]GlcNAc
In short: as §1

[12] = biological target: GlcNAc(a1-6)Gal(b1-4)GlcNAc
In short: as §1

[13] = biological target: GlcNAc(b1-2)Gal(b1-3)GalNAc
In short: as §1

[14] = biological target: GlcNAc(b1-2)Man(a1-3)[GlcNAc(b1-2)Man(a1-6)]Man(b1-4)GlcNAc(b1-4)GlcNAc
In short: as §1

[15] = biological target: GlcNAc(b1-2)Man(a1-3)[GlcNAc(b1-2)Man(a1-6)]Man(b1-4)GlcNAc(b1-4)[Fuc(a1-6)]GlcNAc
In short: as §1

[16] = biological target: GlcNAc(b1-2)Man(a1-3)[GlcNAc(b1-4)][GlcNAc(b1-2)Man(a1-6)]Man(b1-4)GlcNAc(b1-4)GlcNAc
In short: as §1

[17] = biological target: GlcNAc(b1-2)Man(a1-3)[GlcNAc(b1-4)][GlcNAc(b1-2)Man(a1-6)]Man(b1-4)GlcNAc(b1-4)[Fuc(a1-6)]GlcNAc
In short: as §1

[18] = biological target: GlcNAc(b1-2)[GlcNAc(b1-4)]Man(a1-3)[GlcNAc(b1-2)Man(a1-6)]Man(b1-4)GlcNAc(b1-4)GlcNAc
In short: as §1

[19] = biological target: GlcNAc(b1-2)[GlcNAc(b1-4)]Man(a1-3)[GlcNAc(b1-4)][GlcNAc(b1-2)Man(a1-6)]Man(b1-4)GlcNAc(b1-4)GlcNAc
In short: as §1

[20] = biological target: GlcNAc(b1-2)[GlcNAc(b1-4)]Man(a1-3)[GlcNAc(b1-4)][GlcNAc(b1-2)[GlcNAc(b1-6)]Man(a1-6)]Man(b1-4)GlcNAc(b1-4)GlcNAc
In short: as §1

[21] = biological target: GlcNAc(b1-2)[GlcNAc(b1-4)]Man(a1-3)[GlcNAc(b1-4)][GlcNAc(b1-2)[GlcNAc(b1-6)]Man(a1-6)]Man(b1-4)GlcNAc(b1-4)[Fuc(a1-6)]GlcNAc
In short: as §1

[22] = biological target: GlcNAc(b1-2)[GlcNAc(b1-6)]Man(a1-6)[GlcNAc(b1-2)Man(a1-3)]Man(b1-4)GlcNAc(b1-4)GlcNAc
In short: as §1

[23] = biological target: GlcNAc(b1-2)[GlcNAc(b1-6)]Man(a1-6)[GlcNAc(b1-2)Man(a1-3)]Man(b1-4)GlcNAc(b1-4)[Fuc(a1-6)]GlcNAc
In short: as §1

[24] = biological target: GlcNAc(b1-2)[GlcNAc(b1-6)]Man(a1-6)[GlcNAc(b1-4)][GlcNAc(b1-2)Man(a1-3)]Man(b1-4)GlcNAc(b1-4)GlcNAc
In short: as §1

GlcNAc(b1-3)Fuc = biological target: GlcNAc(b1-3)Fuc
In short: as §1

GlcNAc(b1-3)Gal = biological target: GlcNAc(b1-3)Gal
In short: as §1

[25] = biological target: GlcNAc(b1-3)Gal(b1-3)GalNAc
In short: as §1

GlcNAc(b1-3)Gal(b1-4)Glc = biological target: GlcNAc(b1-3)Gal(b1-4)Glc
In short: as §1

[26] = biological target: GlcNAc(b1-3)Gal(b1-4)GlcNAc
In short: as §1

[27] = biological target: GlcNAc(b1-3)Gal(b1-4)GlcNAc(b1-2)Man(a1-3)[GlcNAc(b1-3)Gal(b1-4)GlcNAc(b1-2)Man(a1-6)]Man(b1-4)GlcNAc(b1-4)GlcNAc
In short: as §1

[28] = biological target: GlcNAc(b1-3)Gal(b1-4)GlcNAc(b1-2)Man(a1-3)[GlcNAc(b1-3)Gal(b1-4)GlcNAc(b1-2)Man(a1-6)]Man(b1-4)GlcNAc(b1-4)[Fuc(a1-6)]GlcNAc
In short: as §1

B1: MGL6A (Homo sapiens) (protein)
chain: MTRTYENFQYLENKVKVQGFKNGPLPLQSLLQRLCSGPCHLLLSLGLGLLLLVIICVVGFQNSKFQRDLVTLRTDFSNFTSNTVAEIQALTSQGSSLEETIASLKAEVEGFKQERQAVHSEMLLRVQQLVQDLKKLTCQVATLNNNGEEASTEGTCCPVNWVEHQDSCYWFSHSGMSWAEAEKYCQLKNAHLVVINSREEQNFVQKYLGSAYTWMGLSDPEGAWKWVDGTDYATGFQNWKPGQPDDWQGHGLGGGEDCAHFHPDGRWNDDVCQRPYHWVCEAGLGQTSQESH
glycan array binding signal (z-score) (Glc(a1-6)Glc(a1-6)Glc): -0.191
glycan array binding signal (z-score) [1]: -0.263
glycan array binding signal (z-score) (Glc(b1-4)Glc): -0.153
glycan array binding signal (z-score) (Glc(b1-6)Glc): 0.08
glycan array binding signal (z-score) (GlcA(b1-3)Gal): -0.238
glycan array binding signal (z-score) (GlcA(b1-3)GlcNAc): -0.247
glycan array binding signal (z-score) (GlcA(b1-6)Gal): -0.32
glycan array binding signal (z-score) [2]: -0.23
glycan array binding signal (z-score) [3]: -0.257
glycan array binding signal (z-score) [4]: -0.343
glycan array binding signal (z-score) [5]: -0.306
glycan array binding signal (z-score) [6]: -0.178
glycan array binding signal (z-score) [7]: -0.22
glycan array binding signal (z-score) [8]: -0.294
glycan array binding signal (z-score) [9]: -0.138
glycan array binding signal (z-score) [10]: -0.301
glycan array binding signal (z-score) [11]: -0.224
glycan array binding signal (z-score) [12]: -0.295
glycan array binding signal (z-score) [13]: -0.275
glycan array binding signal (z-score) [14]: -0.27
glycan array binding signal (z-score) [15]: -0.274
glycan array binding signal (z-score) [16]: -0.275
glycan array binding signal (z-score) [17]: -0.278
glycan array binding signal (z-score) [18]: -0.252
glycan array binding signal (z-score) [19]: -0.268
glycan array binding signal (z-score) [20]: -0.278
glycan array binding signal (z-score) [21]: -0.248
glycan array binding signal (z-score) [22]: -0.262
glycan array binding signal (z-score) [23]: -0.27
glycan array binding signal (z-score) [24]: -0.278
glycan array binding signal (z-score) (GlcNAc(b1-3)Fuc): -0.203
glycan array binding signal (z-score) (GlcNAc(b1-3)Gal): -0.128
glycan array binding signal (z-score) [25]: -0.197
glycan array binding signal (z-score) (GlcNAc(b1-3)Gal(b1-4)Glc): -0.269
glycan array binding signal (z-score) [26]: -0.086
glycan array binding signal (z-score) [27]: -0.26
glycan array binding signal (z-score) [28]: -0.285
